This test relates to Zika virus NS2B-NS3 protease (linked). The test can be described thus: 384 well plate NINDS AMC confirmatory qHTS for Zika virus inhibitors (AID 1347163). Also: nearly all actives have a fitted effect of over 50% in size. Conditions: Recombinant NS2B-NS3 protease, Ac-VKTGKR-AMC fluorescence; series mostly up to 100 µM. A digest of the protocol: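 Linked protease 5/30/60 nM final; cpds up to 1 mM final, ~15 min preinc. Substrate Ac-VKTGKR-AMC 30 microM final. RT, dark, 25 min; FI ex 355/em 460; normalized to no-enzyme/no-inhibitor ctrls.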
In general terms: In qHTS, concentration-response curves come from the screen itself.

Records with an inconclusive call do not appear. Calls follow the shape of the dose curve; as a rule, active = well fitted inhibition curve with a large enough effect; inconclusive = small, poorly fitted or top-dose-only effect; inactive = no such curve, though single readings can be large or run the other way. Where a structure was tested more than once in an assay, its records may differ in their call. A number of entries come with more than one value. This list holds those alone. The source may hold further records. Results that share an entry are repeated measurements (runs, samples, wells, individuals or studies). Records carry a tag for their origin. Letters count within one entry.
Potency is read from the fitted curve at half-maximal effect.

For the compound `CON(C)Cc1ccc(O)c2c1C[C@H]1C[C@H]3[C@H](N(C)C)C(=O)C(C(N)=O)=C(O)[C@@]3(O)C(=O)C1=C2O`, the Potency result is “active: 251 µM [sample A] and inactive [sample B]”.

Source of the values: PubChem BioAssay (NCATS).
